From PubChem BioAssay AID1768 (National Center for Advancing Translational Sciences (NCATS), 2009)
Screen size: about 270,000 compounds; about 620 (0.23%) were called active. The shares of active, inactive and inconclusive entries below differ from those in the screen. Calls come from the whole dose curve; as a rule, active = well fitted inhibition curve with a large enough effect in the polarisation, with a control signal flat (not every such curve was filed as active); inconclusive = small, poorly fitted or top-dose-only effect, or effect the other way, or a change in a side signal; inactive = no such curve, though single readings can be large or run the other way; the % refers to the polarisation. Potencies beside an inconclusive call are fits to weak or partial responses and may not hold up. A note “side channel” means that the fit belongs to a control or component signal, not to the main read-out.

Biological target: Menin (Homo sapiens) (UniProt O00255)
Test: qHTS Assay for Inhibitors Targeting the Menin-MLL Interaction in MLL Related Leukemias: Competition With Texas Red Labeled MLL-derived Mutant Peptide; for FP activity change, negative = inhibition: % of control where 0% means no effect
Conditions: fluorescence polarization; FP activity change, negative = inhibition: at 61.6 µM (top of the series)
Potency is the fitted concentration of half-maximal effect; tags give direction and shape of the fitted curve or compound fluorescence and quenching.

UniProt O00255, sequence (O00255 whole entry, looked up): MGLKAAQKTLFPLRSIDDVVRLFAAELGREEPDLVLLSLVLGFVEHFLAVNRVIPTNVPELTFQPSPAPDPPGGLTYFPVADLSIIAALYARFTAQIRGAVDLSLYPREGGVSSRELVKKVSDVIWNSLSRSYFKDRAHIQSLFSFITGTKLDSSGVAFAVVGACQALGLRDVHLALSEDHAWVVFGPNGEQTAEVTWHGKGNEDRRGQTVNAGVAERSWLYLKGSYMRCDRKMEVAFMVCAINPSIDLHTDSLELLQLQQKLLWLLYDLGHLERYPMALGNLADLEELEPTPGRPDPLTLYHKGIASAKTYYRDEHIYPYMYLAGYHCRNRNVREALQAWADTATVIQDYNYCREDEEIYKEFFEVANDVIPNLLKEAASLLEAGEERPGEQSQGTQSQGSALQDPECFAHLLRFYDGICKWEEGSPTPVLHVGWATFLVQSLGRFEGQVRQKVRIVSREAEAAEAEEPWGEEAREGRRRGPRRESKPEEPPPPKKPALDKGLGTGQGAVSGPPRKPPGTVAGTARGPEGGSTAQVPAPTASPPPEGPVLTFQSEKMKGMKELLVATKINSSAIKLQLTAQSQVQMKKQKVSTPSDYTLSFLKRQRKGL

| SMILES | Potency | FP activity change, negative = inhibition |
| --- | --- | --- |
| CC[C@H](C)[C@H](NC(=O)[C@H](CCC(=O)O)NC(=O)[C@H](CO)NC(=O)[C@@H](NC(=O)[C@@H](N)CO)C(C)C)C(=O)N[C@@H](CCC(N)=O)C(=O)N[C@@H](CC(C)C)C(=O)N[C@@H](CCSC)C(=O)N[C@@H](Cc1cnc[nH]1)C(=O)N[C@@H](CC(N)=O)C(=O)N[C@@H](CC(C)C)C(=O)NCC(=O)N[C@@H](CCCCN)C(=O)N[C@@H](Cc1cnc[nH]1)C(=O)N[C@@H](CC(C)C)C(=O)N[C@@H](CC(N)=O)C(=O)N[C@@H](CO)C(=O)N[C@@H](CCSC)C(=O)N[C@@H](CCC(=O)O)C(=O)N[C@@H](CCCNC(=N)N)C(=O)N[C@H](C(=O)N[C@@H](CCC(=O)O)C(=O)N[C@@H](Cc1c[nH]c2ccccc12)C(=O)N[C@@H](CC(C)C)C(=O)N[C@@H](CCCNC(=N)N)C(=O)N[C@@H](CCCCN)C(=O)N[C@@H](CCCCN)C(=O)N[C@@H](CC(C)C)C(=O)N[C@@H](CCC(N)=O)C(=O)N[C@@H](CC(=O)O)C(=O)N[C@H](C(=O)N[C@@H](Cc1cnc[nH]1)C(=O)N[C@@H](CC(N)=O)C(=O)N[C@@H](Cc1ccccc1)C(=O)N[C@H](C(=O)N[C@@H](C)C(=O)N[C@@H](CC(C)C)C(=O)NCC(=O)O)C(C)C)C(C)C)C(C)C | inconclusive: 15.8 µM [fluorescent, side channel, partial curve] | – |
| Cc1cc(-c2nc3ncccc3o2)ccc1NC(=S)NC(=O)C(C)C | inconclusive: 39.8 µM [inhibitor, single point] | – |
| O=C1CN(CC(=O)N2CCCCC2)c2ccccc2O1 | – | inactive: -1.21% |
| CC(=O)Nc1ccc(OS(=O)(=O)c2c(C)cc(C)cc2C)cc1 | inconclusive: 12.6 µM [quencher, side channel, partial curve] | – |
| O=C(Nc1nnc(Cc2ccccc2)s1)c1cccs1 | – | inactive: -16.9% |
| COc1ccc(S(=O)(=O)Nc2ccccc2C(=O)Nc2nc(-c3ccc(F)cc3)cs2)cc1OC | inconclusive: 10 µM [quencher, partial curve] | – |
| Cc1ccc(-n2cc(C(=O)c3ccc(F)cc3)nn2)cc1Cl | – | inactive: -15.7% |
| O=C(Cn1c(C(F)(F)F)nc2ccccc21)N=Nc1c(O)[nH]c2ccc(Br)cc12 | inconclusive: 35.5 µM [quencher, side channel, single point] | – |
| Cc1cc(Cl)c2oc(C(=O)N(CCO)Cc3ccccc3)c(C)c2c1 | inconclusive: 39.8 µM [quencher, side channel, single point] | – |
| CCOc1cccc(CN2CCCC(C(=O)c3cc(Cl)ccc3OC)C2)c1O (stereo not given) | inconclusive: 20 µM [fluorescent, side channel, partial curve] | – |
| COc1cc(OC)c(N(C)C(=O)c2cn(C)c(=O)c3cc(OC)c(OC)cc23)cc1Cl | inconclusive: 31.6 µM [inhibitor, partial curve] | – |
| CC1(C)SC(=S)N(NC(=O)Nc2ccccc2)C1N(O)C(=O)Nc1ccccc1 (stereo not given) | inconclusive: 11.2 µM [quencher, side channel, partial curve] | – |
| Cc1ccc(NC(=O)C(OC(=O)c2ccc(F)cc2)c2ccccc2)cc1Cl (stereo not given) | inconclusive: 39.8 µM [inhibitor, single point] | – |
| CCN1CCC(Nc2ccnc3cc(Cl)ccc23)CC1 | inconclusive: 25.1 µM [inhibitor, single point] | – |
| COCCNC(=O)C(c1ccc(C)cc1)N(C(=O)C(=O)NC1CCCC1)c1ccc2c(c1)OCCO2 (stereo not given) | inconclusive: 14.1 µM [fluorescent, side channel, partial curve] | – |
| Cc1cccc2sc(N(CCCN(C)C)C(=O)c3ccc(S(=O)(=O)N4CCc5ccccc5C4)cc3)nc12 | inconclusive: 3.55 µM [inhibitor, partial curve] | – |
| CC1CCc2c(sc(NC(=O)c3ccc(Cn4cc([N+](=O)[O-])cn4)o3)c2C#N)C1 (stereo not given) | inconclusive: 20 µM [quencher, side channel, partial curve] | – |
| CC(C)(C)c1ccccc1OCCCCCn1ccnc1 | inconclusive: 14.1 µM [fluorescent, side channel, partial curve] | – |
| CCSc1nnc(NC(=O)C2CC(=O)N(Cc3ccc(C)cc3)C2)s1 (stereo not given) | inconclusive: 5.01 µM [inhibitor, full curve, poor fit] | – |
| Cc1ccccc1NC(=O)CN1CCN(C)CC1 | inconclusive: 31.6 µM [inhibitor, partial curve] | – |
| COc1ccc(-c2nc(-c3ccccc3)c(NC(C)C)o2)cc1 | – | inactive: -4.8% |
| Oc1ccc2ccccc2c1CN1CCN(c2ccccc2F)CC1 | – | inactive: -13% |
| C#CCOCCOCCOCCNc1nc(N2CCOCC2)nc(N2CCN(C(=O)[C@H](Cc3cc4ccccc4[nH]3)n3cc([C@@H](N)Cc4ccc(O)cc4)nn3)CC2)n1 | inconclusive: 3.16 µM [fluorescent, side channel, full curve] | – |
| COc1cccc(C(=O)OCc2cc(=O)oc3c(C)c(C)ccc23)c1OC | inconclusive: 39.8 µM [inhibitor, single point] | – |
| Oc1c(Cl)cc(Cl)cc1C1=NNC(c2ccc(Cl)cc2)C1 (stereo not given) | inconclusive: 3.16 µM [quencher, side channel, full curve] | – |

| SMILES | Potency | FP activity change, negative = inhibition |
| --- | --- | --- |
| CC1CC(C)CN(S(=O)(=O)c2ccc(Cl)cc2)C1 (stereo not given) | inconclusive: 39.8 µM [inhibitor, single point] | – |
| CCC1=Nc2ccccc2-c2nnc(SC)nc2O1 | – | inactive: 6.82% |
| CCN(C(=O)Cn1c(=O)oc2ccccc21)c1cccc(C)c1 | inconclusive: 35.5 µM [inhibitor, single point] | – |
| COc1cccc(C2=Nn3c(nnc3-c3cccc(OC)c3OC)SC2)c1 | – | inactive: -4.42% |
| COc1ccccc1-c1ccc(=O)n(CC(=O)NC2CCc3ccccc32)n1 (stereo not given) | inconclusive: 3.55 µM [fluorescent, side channel, full curve] | – |
| CCOc1ccc(/C(C)=N/NC(=O)c2nnn(-c3nonc3N)c2-c2cccs2)cc1 | inconclusive: 35.5 µM [fluorescent, side channel, single point] | – |
| COc1cc(S(=O)(=O)Nc2ccc(C)cc2)ccc1N=Cc1c(C)c(C#N)c(=O)n(C)c1O | inconclusive: 17.8 µM [inhibitor, partial curve] | – |
| Cc1ccc(NC(=O)CNC(=O)c2ccccc2F)cc1Cl | inconclusive: 39.8 µM [inhibitor, single point] | – |
| CS[C@@H]1SC[C@H]2C(=O)N(C)C(C(C)C)C(=O)OC[C@@H](NC(=O)c3cnc4ccccc4n3)C(=O)N[C@@H](C)C(=O)N(C)[C@H]1C(=O)N(C)C(C(C)C)C(=O)OC[C@@H](NC(=O)c1cnc3ccccc3n1)C(=O)N[C@@H](C)C(=O)N2C (stereo not given in full) | inconclusive: 35.5 µM [fluorescent, side channel, partial curve] | – |
| Cc1ccc(-n2nnnc2SCC(=O)Nc2ccc3c(c2)COC3=O)cc1C | inconclusive: 2.82 µM [inhibitor, full curve, poor fit] | – |
| CCCNC(=O)Cn1c(=O)/c(=C\c2ccc(-c3cccc([N+](=O)[O-])c3)o2)s/c1=C\C(=O)C(C)(C)C | inconclusive: 25.1 µM [quencher, side channel, single point] | – |
| CCOc1ccc2c(c1)-c1c(ssc1=S)C(C)(C)N2C | inconclusive: 14.1 µM [quencher, side channel, partial curve] | – |
| CN1C(=O)CSc2ccc(NC(=O)NCc3ccc(F)cc3)cc21 | inconclusive: 39.8 µM [inhibitor, single point] | – |
| CCOC(=O)c1c(-c2ccc(C)o2)csc1NC(=S)NC(=O)c1cccs1 | inconclusive: 0.891 µM [inhibitor, partial curve, poor fit] | – |
| O=C(Nc1ccc(-c2nc3ccccc3s2)c(O)c1)C1=COCCO1 | inconclusive: 25.1 µM [quencher, side channel, partial curve] | – |
| CCOc1ccc(NC(=S)Nc2ccc3nsnc3c2)cc1 | inconclusive: 35.5 µM [quencher, side channel, partial curve] | – |
| CCOC(=O)C1=C(N)Oc2cc(O)ccc2C1c1cccc(Cl)c1 (stereo not given) | inconclusive: 31.6 µM [quencher, side channel, single point] | – |
| O=C1Cc2cccc3cccc1c23 | – | inactive: 0.315% |
| CC(=O)Nc1ccc(NC(=O)C(=O)c2cn(CC(=O)N3CCCC3)c3ccccc23)cc1 | inconclusive: 39.8 µM [fluorescent, single point] | – |
| CCOC(=O)c1c(NC(=O)CSC(=S)N2CCOCC2)sc(C)c1C | inconclusive: 14.1 µM [fluorescent, side channel, partial curve] | – |
| COc1cc(NC(=O)c2ccc(Cl)cc2)c2ncccc2c1 | inconclusive: 39.8 µM [fluorescent, single point] | – |
| COc1cc(C2NC(=O)C(C#N)=C(S)N2c2ccc(C)cc2)ccc1OC(C)C (stereo not given) | inconclusive: 25.1 µM [quencher, side channel, single point] | – |
| COc1ccc(NC(=O)CC2C(=O)N(c3cccc(OC)c3)C(=O)N2Cc2ccco2)cc1 (stereo not given) | inconclusive: 28.2 µM [quencher, side channel, single point] | – |
| CC1SC(c2ccc(F)cc2)N(CCc2ccccc2)C1=O (stereo not given) | inconclusive: 39.8 µM [inhibitor, single point] | – |
| COc1ccc(C(C(=O)NC2CCCC2)N(C(=O)c2snc(C(N)=O)c2N)c2cc(C)ccc2OC)cc1OC (stereo not given) | inconclusive: 1.12 µM [fluorescent, side channel, full curve] | – |
